Data reported in patent CN113214400A (FUKANG SHANGHAI HEALTH TECH CO LTD, dated 2021).

Target: T1, 人VEGF抗原 (WBP325-hPro1, Sino Biological, 11066-HNAB) (human, UniProt P15692-4 27-191)
T1 sequence (looked up): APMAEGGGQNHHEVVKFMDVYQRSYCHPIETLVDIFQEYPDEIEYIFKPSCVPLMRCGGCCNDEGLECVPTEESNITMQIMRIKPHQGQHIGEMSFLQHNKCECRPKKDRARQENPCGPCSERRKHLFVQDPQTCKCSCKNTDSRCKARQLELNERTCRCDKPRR
Assay: cell-based or functional assay

VEGF诱导的HUVEC增殖抑制 IC50: ~12 nM
B1: W3256-U15T2.G6-1.uIgG1 (bispecific antibody)
heavy: EVQLVESGGGLVQPGGSLRLSCAASGYTFTNYGMNWVRQAPGKGLEWVGWINTYTGEPTYAADFKRRFTFSLDTSKSTAYLQMNSLRAEDTAVYYCAKYPHYYGSSHWYFDVWGQGTLVTVSSASTKGPSVFPLAPSSKSTSGGTAALGCLVKDYFPEPVTVSWNSGALTSGVHTFPAVLQSSGLYSLSSVVTVPSSSLGTQTYICNVNHKPSNTKVDKRV[human IgG1 Fc cut from this listing]
light: EVQLVESGGGLVQPGGSLRLSCAASGHFSNLAVNWFRQAPGKERELVAGILWSGGSTFYADSVKGRFTISRGNAENMLYLQMNSLRAEDTAVYYCNTGTNWGQGTLVTVSSGGGGSGGGGSDIQMTQSPSSLSASVGDRVTITCSASQDISNYLNWYQQKPGKAPKVLIYFTSSLHSGVPSRFSGSGSGTDFTLTISSLQPEDFATYYCQQYSTVPWTFGQGTKVEIKRTVAAPSVFIFPPSDEQLKSGTASVVCLLNNFYPREAKVQWKVDNALQSGNSQESVTEQDSKDSTYSLSSTLTLSKADYEKHKVYACEVTHQGLSSPVTKSFNRGEC
